# The whole screen tested about 120,000 compounds, of which about 5,300 (4.4%) were called active. Inconclusive means that the source gave no clear call. Such entries were picked first, then a sample of the others. Calls come from the whole dose curve; as a rule, active = well fitted inhibition curve with a large enough effect; inconclusive = small, poorly fitted or top-dose-only effect; inactive = no such curve, though single readings can be large or run the other way. Potencies beside an inconclusive call are fits to weak or partial responses and may not hold up.
# Assay: qHTS Primary assay for Inhibitors of Plasmodium falciparum Dd2 growth in vitro; note: nearly all actives have a fitted effect of over 65% in size;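 for activity, negative = inhibition: plate controls were DMSO vehicle for no effect and reference drug for full effect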
# Settings: P. falciparum Dd2 growth, SYBR Green, 72 h; activity, negative = inhibition: at 28.9 µM (top of the series) unless noted; series mostly up to 28.9 µM
# In short: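 Readout: SYBR Green fluorescence, 485 nm excitation, 535 nm emission, after ~16 h lysis at 37C. Before that, Dd2-infected red cells (2.5% hematocrit) grew 72 h with compound, 29 uM top final concentration.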
# Potency is the fitted concentration of half-maximal effect; tags give direction and shape of the fitted curve.
SMILES,Potency,"activity, negative = inhibition"
CC(c1nccs1)N(C)C(=O)c1csc2nc(-c3ccccc3Cl)cn12 (centres undefined),"inconclusive: 7.94 µM [inhibitor, partial curve, poor fit]",–
COc1ccc(CN2C[C@@H]3C[C@H]2C(=O)Nc2ccccc2O3)cc1,inactive,–
O=C(O)COc1ccc(-c2nccc3c2C(=O)N(Cc2c[nH]c4ccccc24)CC(CNC(=O)Cc2ccc(Cl)cc2)O3)cc1 (centres undefined),"inconclusive: 7.94 µM [inhibitor, partial curve, poor fit]",–
COc1ccc(NC(=O)c2ccc3c(c2)N(S(=O)(=O)c2ccccc2)CC3)cc1,"inconclusive: 1.78 µM [inhibitor, full curve, poor fit]",–
COc1cc2c(cc1CCc1ccccc1)N(C(=O)COc1ccccc1)CC21CCN(C(C)=O)CC1,"inconclusive: 1 µM [inhibitor, partial curve, poor fit]",–
COc1ccc(OC)c(CCNC(=O)c2cc3c(=O)n(C)c4ccccc4c3n2C)c1,"inconclusive: 17.8 µM [inhibitor, single point]",–
CC1=C[C@@H](CNS(=O)(=O)c2ccccc2)[C@H](C(C)C)C[C@H]1CC(=O)NCc1ccc(C#N)cc1,active: 4.47 µM,–
Cc1ccc(C(=O)N2CCc3[nH]nc(C(=O)N(C)C)c3C2)cc1C,"inconclusive: 17.8 µM [inhibitor, partial curve, poor fit]",–
Cc1ccc(C(=O)NCCn2ccn3nc(-c4ccc(C)c(C)c4)cc3c2=O)cc1,"inconclusive: 11.2 µM [inhibitor, single point]",–
COc1cccc(CNC(=O)C2Cn3cccc3C(=O)N2)c1OC (centres undefined),inactive,–
O=C1NCCCCCN(C(=O)Nc2ccccc2)[C@H]2CCCC[C@@H]12,inactive,–
O=C(Nc1cccc(-c2ccc(N3CCOCC3)nn2)c1)Nc1cccc(C(F)(F)F)c1,"inconclusive: 17.8 µM [inhibitor, single point]",–
Cc1ccc(O)c(-c2n[nH]c3c2C(c2ccccc2F)N(Cc2ccco2)C3=O)c1 (centres undefined),active: 4.47 µM,–
COc1ccc(-n2cccn2)c(CN2CC[C@H](CO)[C@H](O)C2)c1,inactive,–
COC(=O)[C@H](Cc1ccc(OC)cc1)NC(=O)[C@@H]1CN(C(=O)NC(C)C)CCN1C(=O)c1cccs1,inactive,–
CC(C)C(C(=O)N1CCC2(CC1)CN(C)CCN2C)c1ccc(Cl)cc1 (centres undefined),"inconclusive: 2.82 µM [inhibitor, single point]",–
COCCN1C(=O)c2cccn2CC1CNC(=O)c1n[nH]c(=O)c2ccccc12 (centres undefined),"inconclusive: 17.8 µM [inhibitor, single point]",–
O=C(COc1ccc(Cl)cc1)NCCc1csc(-c2cccc(F)c2)n1,"inconclusive: 0.0631 µM [inhibitor, full curve, poor fit]",–
CCc1nc2c(c(-c3ccc(O)cc3)n1)CN(Cc1ccc(C)cc1)CC2,"inconclusive: 11.2 µM [inhibitor, single point]",–
O=C1NC(=NC2CCCCC2)C2(CCN(Cc3ccc(F)cc3)CC2)N1c1cc(F)cc(F)c1,"inconclusive: 12.6 µM [inhibitor, partial curve, poor fit]",–
COc1cccc(-c2cn3c(n2)N(C(=O)Cc2ccsc2)CCC3)c1,inactive,–
CN(C)c1ccc(C(=O)N2CCC3(CC2)NC(=O)N(c2cccc(F)c2)N3)cc1,"inconclusive: 17.8 µM [inhibitor, single point]",–

SMILES,Potency,"activity, negative = inhibition"
CC1=C[C@@H](CNC(=O)NCc2ccccc2)[C@H](C(C)C)C[C@H]1CC(=O)N1CCN(C)CC1,"inconclusive: 10 µM [inhibitor, single point]",–
CCOc1ccc(NC(=O)c2oc3ccccc3c2NC(=O)Cc2cccc(C)c2)cc1,"inconclusive: 8.91 µM [inhibitor, partial curve, poor fit]",–
C[C@@H]1CN(c2cnc3ccccc3n2)CC[C@@]1(O)C1CCC1,"inconclusive: 14.1 µM [inhibitor, single point]",–
CN(CC1CCOC1)C(=O)c1cc(F)ccc1Cl (centres undefined),–,inactive: 10.5% [at 5.79 µM]
C#C[C@H]1CN2CC[C@H]1C[C@@H]2CNC(=O)c1ccc(-c2ccccc2)cc1,inactive,–
Cc1cn2nc(C(=O)N3CCC(NC(=O)CCc4ccccc4)CC3)cc2c(=O)[nH]1,active: 14.1 µM,–
CCc1cccc(Nc2nc(-c3ccc(OC)c(OC)c3)no2)c1,"inconclusive: 14.1 µM [inhibitor, partial curve]",–
COc1ccc(-c2cn3c(n2)CO[C@@H](CNC(=O)c2ccccc2OC)C3)cc1,inactive,–
Cn1ncc(C(=O)N2CCN(c3ccccc3F)CC2)c1C1CCN(C(=O)OC(C)(C)C)CC1,"inconclusive: 17.8 µM [inhibitor, single point]",–
O=c1n(-c2ccncc2)nc2n1CCN(Cc1ccc(C(F)(F)F)cc1)C2,active: 7.94 µM,–
OC[C@@H]1CN(Cc2ccncc2F)C[C@H]1c1nc(-c2cccnc2)no1,"inconclusive: 11.2 µM [inhibitor, single point]",–
COCCN1CCNc2cc(Nc3cccc(N(C)C)c3)ncc2C1,"inconclusive: 5.62 µM [inhibitor, single point]",–
O=C1CC(c2ccccc2)N(S(=O)(=O)c2cccc(F)c2)CCCCCN1 (centres undefined),"inconclusive: 1.78 µM [inhibitor, full curve, poor fit]",–
CNC(=O)[C@@H]1CN(Cc2ccccc2C(F)(F)F)C[C@H]1CO,inactive,–
Cc1nn(-c2ccc(C(C)C)cc2)c(C)c1[C@@H]1C=C[C@@H](NC(=O)Nc2ccccc2)C1,active: 11.2 µM,–
COc1cc(NC(=O)c2ncn(-c3ccccc3)n2)cc(OC)c1,"inconclusive: 8.91 µM [inhibitor, single point]",–
Cc1ccc2nc(CO[C@H]3CN(CC(C)(C)C)C[C@H]3F)[nH]c2c1,"inconclusive: 14.1 µM [inhibitor, single point]",–
CC1=Nc2cc(C(=O)NCCCN(C)C)ccc2Sc2ccc(Cl)cc21,"inconclusive: 20 µM [inhibitor, single point]",–
COc1ccc(NC(=O)c2c(C)oc3ccc(O)c(CN4CCN(Cc5ccccc5)CC4)c23)cc1,active: 1.26 µM,–
COc1cc2c(cc1Oc1ccccc1)NC(=O)C21CCN(C(=O)c2ccccc2)CC1,"inconclusive: 1 µM [inhibitor, full curve]",–
CCCS(=O)(=O)c1nc(S(=O)(=O)c2ccc(C)cc2)c(NCc2ccccc2)s1,"inconclusive: 8.91 µM [inhibitor, partial curve, poor fit]",–
O=C1NCCCCCCN[C@H]2C[C@H](C(=O)N3CCN(c4ccccn4)CC3)C[C@@H]12,"inconclusive: 4.47 µM [inhibitor, partial curve, poor fit]",–

SMILES,Potency,"activity, negative = inhibition"
Cc1ccc(-n2cccc2CC(=O)NC(C)(C)C)cc1,inactive,–
CC1CCN(C(=O)c2ccccc2OCC2CCCN(Cc3ccncc3F)C2)CC1 (centres undefined),"inconclusive: 20 µM [inhibitor, single point]",–
CC(=O)N[C@H]1C[C@@H](Cc2cc(C(C)(C)C)on2)C1(C)C,"inconclusive: 39.8 µM [inhibitor, single point]",–
N#Cc1ccccc1CN1CCNc2nc(CNCc3ccccc3)n(Cc3ccccc3)c2C1=O,"inconclusive: 3.98 µM [inhibitor, single point]",–
CCn1ncc(CN2CCC3(CCC3OC)CC2)c1C (centres undefined),inactive,–
Cc1ccc(OCc2nc(C3CCN(C(=O)c4ccn[nH]4)C3)no2)cc1 (centres undefined),"inconclusive: 2.51 µM [inhibitor, full curve, poor fit]",–
CC(CNC(=O)C1CCN(C(=O)c2ncn3c2COC(c2ccccc2)C3)CC1)c1ccccc1 (centres undefined),inactive,–
COc1cncc(-c2nc(-c3c(C)noc3C)cc3c2cc(C)n3CCN(C)C)c1,"inconclusive: 1.58 µM [inhibitor, partial curve, poor fit]",–
CC(=O)N1CCCc2cc(S(=O)(=O)N3CCCC(C(=O)N4CCN(c5cc(C)ccc5C)CC4)C3)ccc21 (centres undefined),"inconclusive: 10 µM [inhibitor, partial curve]",–
Cc1ccc2c(c1)-c1c(cnn1CC(=O)Nc1ccccc1C#N)CO2,"inconclusive: 5.01 µM [inhibitor, partial curve, poor fit]",–
CSc1cccc(NC(=O)Cn2c(-c3ccc(Cl)cc3)nc(C)c(CCO)c2=O)c1,"inconclusive: 1.58 µM [inhibitor, partial curve, poor fit]",–
COc1ccccc1C(O)c1nc(Nc2ccc(C(C)C)cc2)n[nH]1 (centres undefined),inactive,–
CC(=O)Nc1ccc(CN2C[C@@H](F)[C@@H](OCc3nc4cc(C)c(C)cc4[nH]3)C2)cc1,active: 11.2 µM,–
O=C1OCCCN1C1CCN([S+](=O)([O-])c2cccc(C(F)(F)F)c2)CC1,inactive,–
CCOc1ccc(-c2cc3nc(C4CCN(C(=O)OC(C)(C)C)CC4)c(C(=O)Nc4ccc(C)cc4C)cn3n2)cc1,active: 8.91 µM,–
COc1ccccc1N1CCN(C(=O)c2cc3ccc4ccc(C)[nH]c4c3n2)CC1,active: 12.6 µM,–
COc1ccc(-c2cc(N3CCC(NC(=O)c4cc(Cl)ccc4F)CC3)n[nH]2)cc1,"inconclusive: 3.98 µM [inhibitor, partial curve, poor fit]",–
CCC(Sc1nc2nccnc2c(=O)n1Cc1ccc(C)cc1)C(=O)NC1CCCCC1 (centres undefined),"inconclusive: 10 µM [inhibitor, single point]",–
CCOc1ccc(S(=O)(=O)Nc2ccc(-c3ccc(OC)nn3)cc2)cc1,"inconclusive: 11.2 µM [inhibitor, single point]",–
COc1cc2c(c(OC)c1)C(c1cc(OC)c(OC)c(OC)c1)CC(=O)N2 (centres undefined),inactive,–
